The text below walks through data of the supplement of paper PMC8291772.

± gives the standard error. The list shows a part of the results.

For the assay, the target named is terminal deoxynucleotidyl transferase (calf thymus) (UniProt P06526). Briefly: TdT poly-dT extension signal (Cy3 hybridisation fluorescence, uncapped minus capped) (fluorescence a.u.); higher = more efficient initiation of TdT extension. The settings on record: initiator chemistry: 2'-O-methyl-RNA, free 3'-OH (5'-tethered via HEG linker). In short, it runs like this: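 Mono- to pentamer initiators were made by photolithographic in situ synthesis on glass on a hexaethylene glycol linker, each as uncapped and DMTr-dT-capped replicates. Arrays were extended with 0.2 u/μL calf thymus TdT and 100 μM dTTP in TdT buffer plus 0.25 mM CoCl2 at 37 °C for 120 min, hybridized with Cy3-labelled rA18 probe at 4 °C and scanned at 532 nm. Extension signal is mean uncapped minus mean capped (background) fluorescence.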
Chain of UniProt P06526 (P06526 whole entry): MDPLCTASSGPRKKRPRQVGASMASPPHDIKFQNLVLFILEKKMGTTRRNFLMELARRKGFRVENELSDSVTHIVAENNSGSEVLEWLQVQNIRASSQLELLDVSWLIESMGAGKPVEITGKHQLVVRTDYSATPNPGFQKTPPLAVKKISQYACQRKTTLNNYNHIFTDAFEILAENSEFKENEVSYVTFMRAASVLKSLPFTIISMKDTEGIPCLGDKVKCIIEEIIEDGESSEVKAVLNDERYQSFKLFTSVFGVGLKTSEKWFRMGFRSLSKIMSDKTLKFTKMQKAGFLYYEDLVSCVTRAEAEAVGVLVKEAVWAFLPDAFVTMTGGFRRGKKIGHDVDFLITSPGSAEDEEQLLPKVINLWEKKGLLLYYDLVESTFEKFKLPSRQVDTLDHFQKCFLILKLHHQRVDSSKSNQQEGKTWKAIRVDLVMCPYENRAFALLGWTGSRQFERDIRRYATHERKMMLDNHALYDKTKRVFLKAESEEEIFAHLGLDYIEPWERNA
As to GUUGC, the “TdT poly-dT extension signal” value was determined as 1090 ± 52.
With UUGGG the figure was 303 ± 27; with CUCUA, 507 ± 44; with ACGUG, 304 ± 19.
CACAA: the “TdT poly-dT extension signal” value came out at 923 ± 85.
With ACUU the figure was 284 ± 26; with CCUG, 284 ± 17; with UCUUA, 366 ± 28.
CAAAG: the “TdT poly-dT extension signal” value was determined as 703 ± 58.
With GCAAG the figure was 622 ± 50; with GAGGA, 668 ± 89; with UGCC, 487 ± 38.
In the case of CCAGG, the “TdT poly-dT extension signal” value turned out to be 421 ± 37.
Take GCUGU: the “TdT poly-dT extension signal” value is 406 ± 28.
As for GGUCU, the “TdT poly-dT extension signal” value was 285 ± 19.
Regarding AGUAG, the “TdT poly-dT extension signal” value is 319 ± 25.
With AACUU the figure was 369 ± 22; with CUUGA, 474 ± 41.
With UCAGC the figure was 1040 ± 72.
As to ACACU, the “TdT poly-dT extension signal” value was found to be 363 ± 25.
The value for GGUC was 489 ± 33; that for ACCG was 284 ± 32.
In the case of GUCUA, the “TdT poly-dT extension signal” value was 477 ± 45.
Consider GAUAG, for which the “TdT poly-dT extension signal” value was 308 ± 27.
With AAGA the figure was 792 ± 74.
The value for UUUG was 122 ± 8.3.
With GACAA the figure was 959 ± 65; with GUUAA, 554 ± 23; with CUGAU, 432 ± 28.
Take GGCUU: the “TdT poly-dT extension signal” value was determined as 336 ± 21.
With ACUUC the figure was 383 ± 30.
For the sequence GACGC, the “TdT poly-dT extension signal” value worked out at 1120 ± 110.
With GAGUA the figure was 535 ± 52; with AGAG, 491 ± 39; with UUGUA, 313 ± 19.
The value for CACGA was 613 ± 27; that for CCAGA was 833 ± 99; that for UUCAC was 726 ± 84.
The value for AGUU was 341 ± 23; that for AAGCG was 306 ± 17.
In the case of GCCGU, the “TdT poly-dT extension signal” value was 446 ± 20.
The value for CGCGU was 494 ± 35; that for UAUAU was 322 ± 24.
With CAUUC the figure was 359 ± 30; with UAAU, 422 ± 28; with ACUUG, 225 ± 15.
The value for CCGC was 1130 ± 55; that for GCCCC was 552 ± 28.
Take CAUCC: the “TdT poly-dT extension signal” value was determined as 487 ± 55.
With GAUAA the figure was 651 ± 58.
With UCCUG, the “TdT poly-dT extension signal” value was 243 ± 39.
As for ACCAA, the “TdT poly-dT extension signal” value worked out at 904 ± 52.
With UGGA the figure was 586 ± 52; with AUAA, 722 ± 81; with ACUCU, 323 ± 37.
Regarding CGGAU, the “TdT poly-dT extension signal” value amounted to 408 ± 37.
Consider AUCGC, for which the “TdT poly-dT extension signal” value turned out to be 1130 ± 62.
The value for AUGCU was 347 ± 32.
With CGCA, the “TdT poly-dT extension signal” value was found to be 449 ± 38.
With AAGGC the figure was 1170 ± 40; with AUAUC, 359 ± 44.
With CAAUG the figure was 254 ± 19.
Consider UAGGU, for which the “TdT poly-dT extension signal” value turned out to be 382 ± 32.
The value for CUCC was 396 ± 35; that for GUUUC was 374 ± 14; that for GCCUA was 541 ± 50.
With ACAGC the figure was 998 ± 56.
With GAUCA the figure was 392 ± 33.
On to CGCCG, for which the “TdT poly-dT extension signal” value came out at 324 ± 46.
With GGGUU the figure was 444 ± 48.
In the case of CCAC, the “TdT poly-dT extension signal” value was found to be 807 ± 63.
In the case of AACAA, the “TdT poly-dT extension signal” value was found to be 945 ± 62.
The value for CGCAA was 873 ± 82; that for UAUUA was 345 ± 19; that for UGGAU was 446 ± 23.
With UUCUC the figure was 414 ± 38.
The value for CUGCA was 344 ± 25; that for GUAUA was 460 ± 36; that for GUUCU was 282 ± 15.
For the sequence AGUC, the “TdT poly-dT extension signal” value was determined as 483 ± 34.
With GGGAC the figure was 918 ± 67.
With GUUA the figure was 365 ± 27.
With AGCCC the figure was 548 ± 39.
For the sequence CAGUG, the “TdT poly-dT extension signal” value stood at 259 ± 24.
Take GGCGC: the “TdT poly-dT extension signal” value came to 903 ± 120.
The value for CUCA was 445 ± 55; that for UCAG was 482 ± 55; that for AACGG was 350 ± 26.
With GUUAU the figure was 226 ± 26.
The value for UAUGG was 158 ± 9.8.
In the case of GUGAG, the “TdT poly-dT extension signal” value is 373 ± 34.
Regarding AAUGC, the “TdT poly-dT extension signal” value stood at 1140 ± 77.
The value for CUUUC was 305 ± 28.
The value for AUUAG was 265 ± 27; that for GUUCA was 318 ± 48; that for UCCC was 510 ± 35.
The value for CUCG was 250 ± 23.
Take CCAGC: the “TdT poly-dT extension signal” value came to 1240 ± 140.
The value for AUGA was 370 ± 27.
The value for ACCAC was 681 ± 58.
The value for CGGUC was 520 ± 44; that for UACGU was 440 ± 24.
As for AGCUA, the “TdT poly-dT extension signal” value worked out at 525 ± 35.
The value for AAAG was 538 ± 32; that for CAGGG was 361 ± 24.
With CGGAA the figure was 852 ± 50; with GUCGU, 482 ± 23.
